The campaign covered roughly 46,000 compounds. About 60 (0.1%) were called active. Roughly 3% stayed inconclusive and do not appear here. The call rests on the fitted dose curve; in most records, active means well fitted inhibition curve with a large enough effect; inconclusive means small, poorly fitted or top-dose-only effect; inactive means no such curve, though single readings can be large or run the other way. This is one part of the list.
Test: Primary qHTS assay for Inhibitors of ovarian cancer metastasis using an organotypic tumor microenvironment (TME) model. Further: nearly all actives have a fitted effect of over 65% in size.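 On activity change, negative = inhibition: plate controls were DMSO wells for no effect and tomatine positive control wells for full effect.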
Settings: SKOV3ip1-GFP adhesion/invasion on 3D omental model, fluorescence; series mostly up to 45.8 µM; activity change, negative = inhibition: at the top concentration
Method in brief: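 A 3D layer of primary human omental fibroblasts, mesothelial cells, fibronectin and collagen I, grown 48 hr, received SKOV3ip1-GFP cells in serum-free medium plus compounds at 0.36-46 umol/L. After 2 hr RT and 16 hr 37 C, fixed adherent GFP cells were counted; normalized to DMSO and tomatine.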
In the case of `COc1cccc(C(=O)NCC(c2ccc3c(c2)OCO3)N2CCN(C)CC2)c1` (stereo not given), the “activity change, negative = inhibition” value is reported as inactive: -6.5%.
In the case of `COc1cc(CNCCCSc2nnnn2C)cc(Br)c1OC`, the “activity change, negative = inhibition” value is reported as inactive: -5.07%.
For `Cc1[nH]c2ccccc2c1C1(O)C(=O)Nc2ccc(Cl)cc21` (stereo not given), the “outcome” value was “inactive”.
With `Cc1nnc(SCC(=O)NCc2cccc(F)c2)c2nn(-c3ccccc3)c(C)c12` the “activity change, negative = inhibition” value was inactive: -4.08%.
With `O=C(NCCn1cc(SCc2ccc(C(F)(F)F)cc2)c2ccccc21)c1cccs1` the “activity change, negative = inhibition” value was inactive: 9.95%.
In the case of `Cc1ccc2nc(-c3ccc(N4CCOCC4)cc3)c(Nc3ccccc3C)n2c1`, the “activity change, negative = inhibition” value is reported as inactive: -26.1%.
For `O=C(CN1C(=O)COc2ccc(S(=O)(=O)NC3CCCC3)cc21)Nc1ccc(F)c(Cl)c1`, the “activity change, negative = inhibition” value was inactive: 14.2%.
With `Cc1ccc(-n2ncc(C(=O)NCCN3CCc4ccccc4C3)c2C2CCN(C(=O)OC(C)(C)C)CC2)c(C)c1` the “activity change, negative = inhibition” value was inactive: 7.31%.
For `Cc1cccc(NC(=O)CSc2nc(=O)n(CCN3CCOCC3)c3c2CCC3)c1`, the “outcome” value was “inactive”.
For `CNC(=O)C1CCC(Cn2c(=O)c3sccc3n(CC(=O)Nc3ccc(C)cc3C)c2=O)CC1` (stereo not given), the “activity change, negative = inhibition” value was inactive: -4.22%.
For `Cc1ccc(NC(=O)Nc2csc3c2CCCC3)c(C)c1`, the “activity change, negative = inhibition” value was inactive: 19%.
With `Cc1[nH]c2ccccc2c1C1(O)C(=O)N(Cc2ccccc2)c2ccc(Br)cc21` (stereo not given) the “outcome” value was “inactive”.
With `COc1ccccc1CNc1ncnc2onc(-c3ccc(Cl)cc3)c12` the “activity change, negative = inhibition” value was inactive: 8.56%.
With `CN(c1nnc(NC(=O)Nc2ccc(Br)cc2)s1)C1CCCCC1` the “activity change, negative = inhibition” value was inactive: 3.28%.
With `COc1cccc(NC(=O)CN2C(=O)COc3ccc(S(=O)(=O)N4CCOCC4)cc32)c1` the “outcome” value was “inactive”.
For `CCOC(=O)c1c(NC(=O)c2cc(=O)c3c(C)cc(C)cc3o2)sc(C)c1C`, the “activity change, negative = inhibition” value was inactive: 2.44%.
In the case of `NC(=O)C1CCN(C(=O)c2ccccc2NC(=O)c2nsc3ccccc23)CC1`, the “activity change, negative = inhibition” value is reported as inactive: 2.44%.
In the case of `CCCS(=O)(=O)NCCc1sc2nc(-c3ccc(Cl)cc3)nn2c1C`, the “activity change, negative = inhibition” value is reported as inactive: -8%.
With `Cc1cc(C(=O)Nc2ccc(Cl)cc2)c2c(C)nn(-c3ccccc3)c2n1` the “activity change, negative = inhibition” value was inactive: 11.9%.
For `Brc1ccc(-c2csc(-c3nc(-c4ccc(Br)s4)cs3)n2)cc1`, the “activity change, negative = inhibition” value was inactive: 0.551%.
With `CCOc1ccc(N(CC(=O)NCc2ccc(C)cc2)S(=O)(=O)c2c(C)[nH]c(=O)[nH]c2=O)cc1` the “activity change, negative = inhibition” value was inactive: -25.3%.
For `COc1ccccc1Nc1nn2c(=O)c3ccc(C(=O)NC4CCCCC4)cc3nc2s1`, the “activity change, negative = inhibition” value was inactive: -14.8%.
For `COc1ccc(CN(C(=O)c2ccc(OCC(C)C)cc2)C2CCS(=O)(=O)C2)cc1` (stereo not given), the “activity change, negative = inhibition” value was inactive: -9.23%.
In the case of `CC(CCc1ccccc1)NC(=O)Cn1ncc2c3ccccc3n(Cc3cccc(Cl)c3)c2c1=O` (stereo not given), the “activity change, negative = inhibition” value is reported as inactive: 1.43%.
In the case of `CC(NC(=O)c1ccc(Cn2c(SCc3ccccc3)nc3cccnc32)cc1)c1ccccc1` (stereo not given), the “activity change, negative = inhibition” value is reported as inactive: -24.1%.
In the case of `COc1cccc(C2C=C(c3ccc(C)cc3)Nc3c(C(=O)Nc4ccc(F)cc4)cnn32)c1OC` (stereo not given), the “activity change, negative = inhibition” value is reported as inactive: -17.8%.
In the case of `O=C(Nc1ccccc1C(F)(F)F)N1Cc2ccccc2Oc2ncccc21`, the “activity change, negative = inhibition” value is reported as inactive: 7.06%.
With `CCOc1ccc(NC(=O)CSc2oc(-c3ccco3)nc2S(=O)(=O)c2ccc(Cl)cc2)cc1` the “activity change, negative = inhibition” value was inactive: -0.599%.
With `CCN(CC)CCNC(=O)Cn1cnc2sc(C)c(S(=O)(=O)N3CCN(c4ccccc4OC)CC3)c2c1=O` the “activity change, negative = inhibition” value was inactive: 2.76%.
In the case of `CCN1CCN(C(c2cccc(OC)c2)c2c(O)cc(C)n(Cc3ccco3)c2=O)CC1` (stereo not given), the “activity change, negative = inhibition” value is reported as inactive: -7.27%.
For `CCOC(=O)c1cc(-c2ccc(OC)cc2)n(CCC(=O)NC2CCC(C)CC2)c1C` (stereo not given), the “outcome” value was “inactive”.
In the case of `COc1ccc(NC(=O)CSc2nc(-c3ccccc3)c3ccccc3n2)cc1`, the “activity change, negative = inhibition” value is reported as inactive: -3.9%.
With `Cc1cccc(C(=O)NCc2nnc(SCC(=O)Nc3ccccc3F)n2-c2ccccc2)c1` the “activity change, negative = inhibition” value was inactive: 6.39%.
For `CCc1cccc(-n2nnc(-c3nc(-c4ccc5c(c4)OCO5)no3)c2C)c1`, the “activity change, negative = inhibition” value was inactive: -8.25%.
For `COc1ccc(S(=O)(=O)N2CCN(C(=O)c3cc(-c4ccc(Br)cc4)n[nH]3)CC2)cc1OC`, the “activity change, negative = inhibition” value was inactive: -9.75%.
For `CC(=O)N1c2ccc(S(=O)(=O)NCC3CCC(C(=O)Nc4cccc(F)c4)CC3)cc2CC1C` (stereo not given), the “activity change, negative = inhibition” value was inactive: -0.445%.
In the case of `CC1CN(C(=O)Nc2ccc(C(=O)NCCc3ccc(Cl)cc3)cc2)c2ccccc2S1` (stereo not given), the “activity change, negative = inhibition” value is reported as inactive: -11.2%.
For `COCCn1c(C)cc(O)c(C(c2ccc(OC)cc2)N2CCCCC2)c1=O` (stereo not given), the “outcome” value was “inactive”.
With `CCOc1ccc(NCc2cccn2-c2nnc(N3CCC(C(=O)NCCc4ccc(OCC)c(OCC)c4)CC3)s2)cc1` the “activity change, negative = inhibition” value was inactive: 1.12%.
With `CCN(CC)Cc1ccc2cc(COC(=O)Nc3ccc(C(=O)NO)cc3)ccc2c1` the “activity change, negative = inhibition” value was inactive: -4.01%.
For `Cc1cccc(NC(=O)C(=O)NCC(c2cccnc2)N2CCN(Cc3ccccc3)CC2)c1` (stereo not given), the “activity change, negative = inhibition” value was inactive: 5.86%.
For `Cn1c(C(=O)NCCc2ccccc2)cc2cc(S(=O)(=O)N3CCCCC3)ccc21`, the “activity change, negative = inhibition” value was inactive: -0.0491%.
For `CCCN1Cc2cccc(C(=O)Nc3ccccc3F)c2C1=O`, the “activity change, negative = inhibition” value was inactive: -92.1%.
With `CCCC(=O)Nc1ccc2nc(SCCOc3ccccc3)sc2c1` the “activity change, negative = inhibition” value was inactive: 1.15%.
With `Cc1ccccc1NC(=O)CSCn1nnc2c(=O)[nH]c(Cc3ccc(F)cc3)nc21` the “activity change, negative = inhibition” value was inactive: -1.37%.
With `CCOC(=O)c1c(Nc2ccc(OCC)cc2)nnc(-c2ccccc2)c1-c1ccccc1` the “outcome” value was “inactive”.
For `COc1ccccc1C(=O)Nc1nnc(S(=O)(=O)N2CCCCC2)s1`, the “activity change, negative = inhibition” value was inactive: 36%.
For `CC(C)(C)OC(=O)N1CCC(c2c(C(=O)NCCc3ccsc3)cnn2-c2ccc(F)cc2F)CC1`, the “outcome” value was “inactive”.
For `COc1ccc(Cl)cc1NC(=O)c1c(NCc2cccnc2)sc2c1CCCC2`, the “activity change, negative = inhibition” value was inactive: 5.41%.
For `Cc1cc(-c2ccccc2)nc2cc(C(=O)Nc3ccc(Cl)c(Cl)c3)nn12`, the “activity change, negative = inhibition” value was inactive: -1.7%.
With `Cc1cccc(N2CCN(C(=O)C3CCN(S(=O)(=O)Cc4ccccc4)CC3)CC2)c1C` the “outcome” value was “inactive”.
In the case of `Cc1ccccc1NC(=O)Cn1c(=O)n(Cc2ccco2)c(=O)c2ccc(C(=O)NC3CCCC3)cc21`, the “outcome” value is reported as “inactive”.
For `CC(C)c1cnc2c(c1SCC(=O)c1ccc(Cl)cc1)c(=O)n(C)c(=O)n2C`, the “activity change, negative = inhibition” value was inactive: -13.2%.
In the case of `COc1ccc2ncc3c(-c4ccccc4)nn(-c4ccc(C)c(C)c4)c3c2c1`, the “activity change, negative = inhibition” value is reported as inactive: -3.52%.
In the case of `Cc1ccccc1NC(=O)Cn1nnc(C(=O)NCc2ccco2)c1N`, the “activity change, negative = inhibition” value is reported as inactive: 4.87%.
With `COc1cc(OC)c(NC(=O)c2nn(C)c3c2COc2ccccc2-3)cc1Cl` the “activity change, negative = inhibition” value was inactive: 0.334%.
With `COc1ccccc1C(=O)NC1(C(F)(F)F)C(=O)NC(C)=C1C#N` (stereo not given) the “activity change, negative = inhibition” value was inactive: -1.02%.
In the case of `COc1ccccc1N1CCN(C(=O)C2CCN(S(=O)(=O)c3cccs3)CC2)CC1`, the “activity change, negative = inhibition” value is reported as inactive: -9.4%.
For `CCOC(=O)c1cnc2cc(Cl)c(OC)cc2c1Nc1ccc(Br)cc1C`, the “activity change, negative = inhibition” value was inactive: 2.76%.
In the case of `CSc1ccc(CCNS(=O)(=O)c2cc(-c3cc(C)no3)ccc2C)cc1`, the “outcome” value is reported as “inactive”.
